± gives the uncertainty stated by the source. Shown are siRNA guide strands that differ only in the seed, positions 2 to 7.
Key:
3LL = test: cell viability relative to siNT1 control; higher = less toxic; conditions: concentration: 10 nM; 96 h; Mus musculus;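 further: Luminescence-based viability of cells reverse transfected in 384-well plates with lipid-complexed siRNAs built on a non-toxic 19mer backbone whose passenger strand carries 2′-O-methyl groups at positions 1 and 2, triplicates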
HeyA8 = test: cell viability relative to lipid-only control; HeyA8 human ovarian and H460 human lung cancer; M565 mouse liver and 3LL mouse lung cancer; siNT1 is a non-toxic control siRNA; higher = less toxic; conditions: concentration: 10 nM; 96 h; Homo sapiens
Experimental: (§1)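 Arrayed screen of 4096 siRNA duplexes, each carrying one of all possible 6mer seeds at guide-strand positions 2-7 in a fixed neutral 19mer scaffold (constant flanks: U at position 1, then ACAUGUAAACCA, plus a 3' AA overhang). The passenger strand is 2'-O-methylated at positions 1-2 so only the guide strand loads into RISC. Duplexes were reverse-transfected at 10 nM with RNAiMAX in triplicate in 384-well plates; viability was read by CellTiter-Glo ATP content 96 h after transfection. Values are % viability normalised to lipid-only wells (HeyA8, H460, M565) or to siNT1 (3LL).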

H460 = test: as above; conditions: concentration: 10 nM; 96 h; Homo sapiens
Experimental: as §1

M565 = test: as above; conditions: concentration: 10 nM; 96 h; Mus musculus
Experimental: as §1
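Wherever cell viability relative to lipid-only control is given: reverse lipid transfection in 384-well plates, in triplicate, of duplexes on a non-toxic 19mer backbone with passenger strand 2′-O-methylated at positions 1 and 2, luminescence viability read-out.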

Sequence | cell viability (3LL) [%] | cell viability (HeyA8) [%] | cell viability (H460) [%] | cell viability (M565) [%]
UCUCCUCACAUGUAAACCAAA | 59.5 ± 10 | 44.4 ± 3 | 24.3 ± 1.1 | 38.8 ± 6.3
UCUCCUGACAUGUAAACCAAA | 90.9 ± 10 | 80.2 ± 5.6 | 54.9 ± 3.3 | 70.8 ± 13
UCUCCUUACAUGUAAACCAAA | 91.2 ± 14 | 75.1 ± 4.7 | 62.2 ± 12 | 53 ± 8.3
UCUCGAAACAUGUAAACCAAA | 88.2 ± 13 | 87 ± 4.2 | 48.4 ± 5.1 | 71.1 ± 5.7
UCUCGACACAUGUAAACCAAA | 94.1 ± 15 | 81.6 ± 5.2 | 38.1 ± 0.56 | 65.7 ± 17
UCUCGAGACAUGUAAACCAAA | 97.7 ± 18 | 92.3 ± 9 | 52.2 ± 1.3 | 67.6 ± 13
UCUCGAUACAUGUAAACCAAA | 88.8 ± 16 | 90.3 ± 5.8 | 42.6 ± 4.2 | 61.4 ± 8.8
UCUCGCAACAUGUAAACCAAA | 95.5 ± 18 | 88.1 ± 5.4 | 54.4 ± 7.5 | 70.2 ± 11
UCUCGCCACAUGUAAACCAAA | 77.1 ± 18 | 76 ± 2.2 | 40.4 ± 1.9 | 49.3 ± 12
UCUCGCGACAUGUAAACCAAA | 93.1 ± 20 | 84.9 ± 8.8 | 47.8 ± 6.4 | 73.1 ± 18
UCUCGCUACAUGUAAACCAAA | 93 ± 18 | 88.2 ± 5 | 42.1 ± 2.5 | 68.3 ± 12
UCUCGGAACAUGUAAACCAAA | 99.2 ± 24 | 85.1 ± 7.9 | 53.1 ± 1.3 | 66.7 ± 7.2
UCUCGGCACAUGUAAACCAAA | 83.7 ± 11 | 25.3 ± 0.61 | 25.6 ± 3.6 | 23.5 ± 4
UCUCGGGACAUGUAAACCAAA | 91.1 ± 9.9 | 87.5 ± 6.6 | 40.6 ± 4.3 | 60 ± 7
UCUCGGUACAUGUAAACCAAA | 94.5 ± 13 | 75.4 ± 10 | 45.2 ± 1 | 41.3 ± 8.4
UCUCGUAACAUGUAAACCAAA | 98 ± 18 | 89.4 ± 13 | 72.6 ± 10 | 63.3 ± 13
UCUCGUCACAUGUAAACCAAA | 83.2 ± 8.4 | 37.8 ± 4.7 | 58.7 ± 11 | 40.8 ± 15
UCUCGUGACAUGUAAACCAAA | 88.5 ± 13 | 84.7 ± 7.4 | 59.4 ± 10 | 70.8 ± 12
UCUCGUUACAUGUAAACCAAA | 94.4 ± 14 | 87.8 ± 8.2 | 57.3 ± 5.9 | 65.6 ± 6.5

Sequence | cell viability (3LL) [%] | cell viability (HeyA8) [%] | cell viability (H460) [%] | cell viability (M565) [%]
UCUCUAAACAUGUAAACCAAA | 101 ± 11 | 93.9 ± 14 | 43.9 ± 5.4 | 63 ± 8
UCUCUACACAUGUAAACCAAA | 95.2 ± 12 | 69.2 ± 4.5 | 40.3 ± 4.9 | 50 ± 5.9
UCUCUAGACAUGUAAACCAAA | 97.6 ± 12 | 91.8 ± 2.8 | 35.1 ± 4.8 | 70.3 ± 7.5
UCUCUAUACAUGUAAACCAAA | 107 ± 16 | 87 ± 6.6 | 41.7 ± 6.7 | 61 ± 14
UCUCUCAACAUGUAAACCAAA | 99.4 ± 22 | 85.5 ± 8.3 | 32.1 ± 2.1 | 56.5 ± 17
UCUCUCCACAUGUAAACCAAA | 64.3 ± 21 | 42.3 ± 4.2 | 21.1 ± 1.1 | 29.7 ± 6.3
UCUCUCGACAUGUAAACCAAA | 101 ± 11 | 87.6 ± 8.4 | 32.8 ± 3.9 | 67.2 ± 12
UCUCUCUACAUGUAAACCAAA | 79 ± 8.3 | 61.2 ± 1.6 | 38.6 ± 2 | 37.3 ± 10
UCUCUGAACAUGUAAACCAAA | 104 ± 13 | 82.2 ± 7.8 | 36.8 ± 2.1 | 61 ± 12
UCUCUGCACAUGUAAACCAAA | 33.3 ± 1.5 | 37.6 ± 4.9 | 29.9 ± 5.9 | 44 ± 3.4
UCUCUGGACAUGUAAACCAAA | 55.3 ± 5.8 | 63.6 ± 2.9 | 34.8 ± 2.7 | 9.64 ± 1.7
UCUCUGUACAUGUAAACCAAA | 67.7 ± 4.9 | 59.1 ± 3.3 | 39.3 ± 4.2 | 20.7 ± 3.3
UCUCUUAACAUGUAAACCAAA | 97.7 ± 14 | 89.7 ± 6.5 | 35.4 ± 3.9 | 64.6 ± 17
UCUCUUCACAUGUAAACCAAA | 79.2 ± 15 | 20.9 ± 0.68 | 35.2 ± 1 | 59.8 ± 9.8
UCUCUUGACAUGUAAACCAAA | 105 ± 12 | 86.7 ± 2 | 34.2 ± 2.9 | 74.1 ± 12
UCUCUUUACAUGUAAACCAAA | 96.5 ± 11 | 78.5 ± 2.2 | 48 ± 5.3 | 81.1 ± 6.2
UCUGAAAACAUGUAAACCAAA | 99.3 ± 19 | 90.9 ± 8 | 71.6 ± 13 | 76.8 ± 13
UCUGAACACAUGUAAACCAAA | 94.5 ± 14 | 68.4 ± 1.9 | 65.1 ± 9.2 | 71.1 ± 12
UCUGAAGACAUGUAAACCAAA | 97.5 ± 15 | 92.2 ± 7 | 68.6 ± 14 | 80.6 ± 16

Sequence | cell viability (3LL) [%] | cell viability (HeyA8) [%] | cell viability (H460) [%] | cell viability (M565) [%]
UCUGAAUACAUGUAAACCAAA | 100 ± 18 | 86.8 ± 14 | 79.7 ± 7.2 | 69.4 ± 18
UCUGACAACAUGUAAACCAAA | 94.2 ± 16 | 86.6 ± 9.5 | 45.2 ± 2.8 | 58.6 ± 6.9
UCUGACCACAUGUAAACCAAA | 58.1 ± 8.9 | 30.5 ± 3.3 | 29.5 ± 2.2 | 6.07 ± 0.63
UCUGACGACAUGUAAACCAAA | 97 ± 15 | 88.3 ± 2.4 | 39.6 ± 6 | 66.5 ± 12
UCUGACUACAUGUAAACCAAA | 94.2 ± 16 | 83 ± 4.2 | 43 ± 6 | 35.6 ± 7.6
UCUGAGAACAUGUAAACCAAA | 99.8 ± 15 | 91.3 ± 7.7 | 63.9 ± 4.2 | 68.1 ± 14
UCUGAGCACAUGUAAACCAAA | 72.9 ± 4.7 | 70.2 ± 1.9 | 47.3 ± 1.4 | 29.7 ± 11
UCUGAGGACAUGUAAACCAAA | 98.8 ± 9.8 | 75.3 ± 5 | 58.5 ± 5.2 | 33.1 ± 7.5
UCUGAGUACAUGUAAACCAAA | 75.8 ± 12 | 91.7 ± 22 | 63.2 ± 5.1 | 28.3 ± 10
UCUGAUAACAUGUAAACCAAA | 97 ± 21 | 89.5 ± 9.8 | 47.5 ± 5 | 58.6 ± 8.3
UCUGAUCACAUGUAAACCAAA | 102 ± 18 | 75.3 ± 4.7 | 49.6 ± 5.9 | 47.9 ± 10
UCUGAUGACAUGUAAACCAAA | 90.5 ± 12 | 87.5 ± 10 | 49.9 ± 5.7 | 56.5 ± 16
UCUGAUUACAUGUAAACCAAA | 97.9 ± 14 | 83.5 ± 8.5 | 55 ± 5.7 | 69.3 ± 9.6
UCUGCAAACAUGUAAACCAAA | 101 ± 15 | 91.9 ± 8.2 | 75 ± 5.1 | 81.2 ± 16
UCUGCACACAUGUAAACCAAA | 89.8 ± 12 | 84 ± 7.3 | 67.3 ± 3.7 | 55.3 ± 11
UCUGCAGACAUGUAAACCAAA | 104 ± 16 | 82.5 ± 5 | 70.9 ± 2.4 | 89.2 ± 8
UCUGCAUACAUGUAAACCAAA | 92 ± 15 | 82.6 ± 6.5 | 66.4 ± 4.3 | 76.7 ± 12
UCUGCCAACAUGUAAACCAAA | 103 ± 14 | 80.5 ± 0.93 | 64.2 ± 1.2 | 63.5 ± 11
UCUGCCCACAUGUAAACCAAA | 35.8 ± 11 | 35.8 ± 4.8 | 38.9 ± 3.8 | 12.2 ± 3.4
